From patent US20250114416A1, “ANTIVIRAL COMPOSITION CONTAINING GINSENG EXTRACT AND STEROID COMPOUND AS ACTIVE INGREDIENTS” (priority 2022, published 2025)

Assays:
Influenza A virus = details: examples using ginseng (Table 1); lung tissue of K18-ACE2 TG mice, oral, three days after infection; non-treated control = 100
SARS-CoV-2 virus = details: examples using ginseng (Table 1); lung tissue of K18-ACE2 TG mice, oral, three days after infection; non-treated control = 100

Structure (SMILES)	Relative virus titer Influenza A virus (Influenza A virus)	Relative virus titer SARS-CoV-2 virus (SARS-CoV-2 virus)
C[C@]12C=CC(=O)C=C1CC[C@H]1[C@@H]3C[C@@H](O)[C@](O)(C(=O)CO)[C@@]3(C)C[C@H](O)[C@@]12F [Comparative Example 7, Triamcinolone]	102 ± 1.9	101 ± 1.9
C[C@@H]1C[C@H]2[C@@H]3CCC4=CC(=O)C=C[C@]4(C)[C@@]3(F)[C@@H](O)C[C@]2(C)[C@@]1(O)C(=O)CO [Comparative Example 4, Dexamethasone]	101 ± 1.9	101 ± 1.9
C[C@]12CCC(=O)C=C1CC[C@@H]1[C@@H]2[C@@H](O)C[C@@]2(C)[C@H]1CC[C@]2(O)C(=O)CO [Comparative Example 5, Hydrocortisone]	102 ± 1.9	102 ± 1.9
C[C@]12C=CC(=O)C=C1CC[C@@H]1[C@@H]2[C@@H](O)C[C@@]2(C)[C@H]1CC[C@]2(O)C(=O)CO [Comparative Example 6, Prednisolone]	103 ± 1.9	101 ± 1.9
